{"source": "PubChem BioAssay AID485294", "about": "(National Center for Advancing Translational Sciences (NCATS), 2010)", "note": "The whole screen tested about 370,000 compounds, of which about 150 (0.041%) were called active. Inconclusive means that the source gave no clear call. Such entries were picked first, then a sample of the others. Calls follow the shape of the dose curve; as a rule, active = well fitted inhibition curve with a large enough effect; inconclusive = small, poorly fitted or top-dose-only effect; inactive = flat fitted curve, though single readings scatter. Potencies of inconclusive entries are left out as doubtful fits. Potency is read from the fitted curve at half-maximal effect; tags tell the direction and shape of the fitted curve."}
{"target": "Beta-lactamase (Escherichia coli (strain K12)) (UniProt P00811)", "sequence (P00811 whole entry, looked up)": "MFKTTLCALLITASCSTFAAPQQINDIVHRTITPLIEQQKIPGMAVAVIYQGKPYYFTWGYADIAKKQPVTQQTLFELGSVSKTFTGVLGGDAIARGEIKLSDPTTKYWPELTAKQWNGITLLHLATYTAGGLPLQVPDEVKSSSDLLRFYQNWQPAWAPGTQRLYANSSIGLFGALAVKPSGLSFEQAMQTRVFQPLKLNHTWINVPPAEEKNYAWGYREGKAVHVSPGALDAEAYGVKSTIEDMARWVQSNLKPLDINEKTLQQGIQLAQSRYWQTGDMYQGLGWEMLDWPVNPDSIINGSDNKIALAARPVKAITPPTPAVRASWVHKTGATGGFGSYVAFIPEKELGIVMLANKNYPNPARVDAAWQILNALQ", "test": "qHTS Inhibitors of AmpC Beta-Lactamase (assay with detergent); also: nearly all actives have a fitted effect of over 25% in size;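 as to activity change, negative = inhibition: 0% = no-compound wells and -100% = no-enzyme wells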", "settings": "AmpC hydrolysis of nitrocefin, absorbance 480 nm, 0.01% Triton; activity change, negative = inhibition: at 114 µM (top of the series)", "procedure,_shortened": "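AmpC (5.3 nM in the dispensed reagent) in 20 mM phosphate pH 7.0 with 0.01% (detergent screen) or 0.0001% Triton X-100 was preincubated with compounds for 15 min at room temperature. Nitrocefin was then added from an 800 uM solution, and hydrolysis was followed at 480 nm.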"}
{"smiles": "CCc1ccc(/C=C2\\SC(N3CCCC3)=NC2=O)cc1", "activity change, negative = inhibition": "inactive: 4.25%"}
{"smiles": "CCCC(=O)c1cc(-c2nc3ccccc3n2C)n(C)c1", "Potency": "inconclusive [inhibitor, full curve]"}
{"smiles": "Cc1cccc(NC(=O)CSc2nc(NS(=O)(=O)c3ccccc3)cc(=O)[nH]2)c1", "activity change, negative = inhibition": "inactive: -6.55%"}
{"smiles": "CCN(CC)C(=O)Cn1c(C)c(/C=C/c2cc[n+](C)cc2)c2ccccc21", "Potency": "inconclusive [inhibitor, partial curve, poor fit]"}
{"smiles": "COc1cc(C(O)P(=O)(OC(C)C)OC(C)C)cc(OC)c1OC", "note": "(stereo not given)", "Potency": "inconclusive [inhibitor, single point]"}
{"smiles": "CC(C)n1cc(CN2CCC(C(=O)Nc3ccc(Oc4ccccc4F)cc3)CC2)cn1", "activity change, negative = inhibition": "inactive: -4.32%"}
{"smiles": "c1ccc(-c2ccc(-c3csnn3)cc2)cc1", "activity change, negative = inhibition": "inactive: -0.671%"}
{"smiles": "Cc1ccc(N(C(=O)C2CCCO2)C2C=CS(=O)(=O)C2)cc1Cl", "note": "(stereo not given)", "Potency": "inconclusive [inhibitor, full curve, poor fit]"}
{"smiles": "CC(C)(C)C(=O)C(Cl)C(=O)Nc1ccccc1", "note": "(stereo not given)", "Potency": "inconclusive [inhibitor, full curve]"}
{"smiles": "CC(C)OCCCNS(=O)(=O)c1ccc2c(c1)OCCO2", "Potency": "inconclusive [inhibitor, full curve]"}
{"smiles": "CCOC(=O)C1(Cc2cccc(Cl)c2)CCCN(C(=O)c2c(CC)noc2C)C1", "note": "(stereo not given)", "activity change, negative = inhibition": "inactive: -0.877%"}
{"smiles": "O=C1c2sc3nc4c(c(=O)n3c2C(=O)N1c1ccccc1)CCC4", "activity change, negative = inhibition": "inactive: -2.54%"}
{"smiles": "CCOc1ccc(C(=O)NCC(=O)N2CCCCCCC2)cc1", "activity change, negative = inhibition": "inactive: -6.18%"}
{"smiles": "CCC(=O)NC(c1ccco1)c1cc(Cl)c2cccnc2c1O", "note": "(stereo not given)", "activity change, negative = inhibition": "inactive: -3.82%"}
{"smiles": "CC(=O)c1ccc(NC(=S)Nc2ccc3cn[nH]c3c2)cc1", "activity change, negative = inhibition": "inactive: -6.5%"}
{"smiles": "O=C(OCc1cn(-c2ccc(Cl)cc2)nn1)c1ccccc1", "Potency": "inconclusive [inhibitor, full curve, poor fit]"}
{"smiles": "O=C(Nc1ccc(Cl)cc1)Nc1ccc2c(c1)N1CCN=C1S2", "Potency": "inconclusive [inhibitor, full curve]"}
{"smiles": "COc1ccc(NC(=O)CN(C)C(=O)c2csc3c2CCCC3)cc1", "activity change, negative = inhibition": "inactive: -0.829%"}
{"smiles": "CCCCOc1ccc(C(=O)C(CN2CCOCC2)c2ccccc2)cc1", "note": "(stereo not given)", "activity change, negative = inhibition": "inactive: -20.9%"}
{"smiles": "Cc1cc(C)n(-c2nncc(-c3ccccc3)n2)n1", "activity change, negative = inhibition": "inactive: 7.6%"}
{"smiles": "CNS(=O)(=O)c1cccc(C(=O)OCC(=O)Nc2sc3c(c2C#N)CCCCC3)c1", "activity change, negative = inhibition": "inactive: 0.201%"}
{"smiles": "CN(C)S(=O)(=O)c1cccc(NC(=S)NNC(=O)c2cc3ccccc3cc2O)c1", "activity change, negative = inhibition": "inactive: -1.42%"}
{"smiles": "CC(C)Oc1nc(-c2ccccc2O)nc2ccccc12", "activity change, negative = inhibition": "inactive: -12%"}
{"smiles": "CC1CCCCN1c1nnc(NC(=O)Cn2c(=O)oc3ccccc32)s1", "note": "(stereo not given)", "Potency": "inconclusive [inhibitor, full curve, poor fit]"}
{"smiles": "CC(C)(C)c1ccc(S(=O)(=O)N2CCN(Cc3noc(CCC(=O)N4CCCCC4)n3)CC2)cc1", "Potency": "inconclusive [inhibitor, single point]"}
{"smiles": "CC(C)=NNc1nc(-c2ccc(N3C(=O)CCC3=O)cc2)cs1", "activity change, negative = inhibition": "inactive: 3.41%"}
{"smiles": "COC(=O)CN1C(=O)[C@H]2[C@@H](c3ccc(C)o3)N3C(=O)CN(CCO)C(=O)[C@@]3(Cc3ccccc3)[C@H]2C1=O", "Potency": "inconclusive [inhibitor, full curve, poor fit]"}
{"smiles": "CC(NCc1ccc(OCC(N)=O)cc1)C12CC3CC(CC(C3)C1)C2", "note": "(stereo not given)", "Potency": "inconclusive [inhibitor, full curve, poor fit]"}
{"smiles": "CC(=O)Nc1ccc(S(=O)(=O)NCCc2csc(-c3cccnc3)n2)cc1", "activity change, negative = inhibition": "inactive: 3.33%"}
{"smiles": "Cc1cc(C(=O)OCC(=O)NC2CC2)c2ccccc2n1", "Potency": "inconclusive [inhibitor, full curve, poor fit]"}
{"smiles": "CC(=O)c1cc(-c2nc3ccccc3n2C)n(C)c1", "Potency": "inconclusive [inhibitor, full curve, poor fit]"}
{"smiles": "COc1ccc(N2CCN(S(=O)(=O)c3ccc4c(c3)NC(=O)CC(=O)N4)CC2)cc1", "activity change, negative = inhibition": "inactive: 2.52%"}
{"smiles": "CCn1c(=O)c2sccc2n(CC(=O)NC2CCCC2)c1=O", "activity change, negative = inhibition": "inactive: -14.1%"}
{"smiles": "CC(C)(C)c1ccc(C(CC(=O)O)NC(=O)c2ccccc2F)cc1", "note": "(stereo not given)", "Potency": "inconclusive [inhibitor, full curve, poor fit]"}
{"smiles": "COc1ccc(NS(=O)(=O)c2cccc(C(=O)NCC(c3ccco3)N3CCCC3)c2)cc1", "note": "(stereo not given)", "Potency": "inconclusive [inhibitor, partial curve, poor fit]"}
{"smiles": "c1ccc2c(c1)CC(CN1CCNCC1)O2", "note": "(stereo not given)", "Potency": "inconclusive [inhibitor, partial curve, poor fit]"}
{"smiles": "O=C(C1CCC(CNS(=O)(=O)c2cccc3cccnc23)CC1)N1CCCC1", "note": "(stereo not given)", "Potency": "inconclusive [inhibitor, partial curve, poor fit]"}
{"smiles": "Cc1ccc(C)c(Cn2cc(S(=O)(=O)c3ccc(Cl)cc3)c(=O)c3cc(F)ccc32)c1", "activity change, negative = inhibition": "inactive: -0.522%"}
{"smiles": "CCCCn1c(N)c(N(CC)C(=O)C2=NN(c3ccccc3)C(=O)CC2)c(=O)[nH]c1=O", "activity change, negative = inhibition": "inactive: -1.26%"}
{"smiles": "CCc1ccc(NC(=O)c2ccc3[nH]c(C)c(C)c3c2)cc1", "activity change, negative = inhibition": "inactive: -0.642%"}
{"smiles": "CCOc1ccc(NC(=O)Cn2c(=O)n(-c3cccc(OC)c3)c(=O)c3c4c(sc32)CCCC4)cc1", "activity change, negative = inhibition": "inactive: 27.2%"}
{"smiles": "COc1ccc(Cl)cc1NS(=O)(=O)c1ccc2c(c1)NC(=O)CC(=O)N2", "activity change, negative = inhibition": "inactive: 4.24%"}
{"smiles": "CCOc1ccccc1C(=O)NCC(=O)OCCOc1cccc(Cl)c1", "Potency": "inconclusive [inhibitor, full curve]"}
{"smiles": "CC(C)CC(=O)/C(=C\\c1ccc(Cl)cc1Cl)n1cncn1", "activity change, negative = inhibition": "inactive: -3.2%"}
{"smiles": "Cc1cn2c(nc1=O)OC1C(O)C(COC(=O)c3ccccc3)OC12", "note": "(stereo not given)", "activity change, negative = inhibition": "inactive: -1.49%"}
{"smiles": "CC1=CC(C)(C)N(C)C(=O)N1c1ccc(Cl)cc1", "Potency": "inconclusive [inhibitor, partial curve]"}
{"smiles": "Cc1cc(CNC(=O)COc2ccc(C#N)cc2)c2ccccc2n1", "Potency": "inconclusive [inhibitor, single point]"}
{"smiles": "COc1ccc(-c2nc(C)c(CCNS(=O)(=O)c3cc(C)c(C)cc3C)s2)cc1", "activity change, negative = inhibition": "inactive: -6.43%"}
{"smiles": "O=C(NCCc1ccccc1)c1nnc(Cc2cccc(F)c2)o1", "activity change, negative = inhibition": "inactive: -6.36%"}
{"smiles": "O=C(Cn1nc(-c2ccccc2)ccc1=O)NCc1ccc(F)cc1", "Potency": "inconclusive [inhibitor, single point]"}
{"smiles": "COC(=O)C1=C(c2ccc(OC(F)(F)F)cc2)C[C@@H]2CC[C@H]1N2C(=O)N1CCC(C)CC1", "activity change, negative = inhibition": "inactive: -3.56%"}
{"smiles": "Cc1ccc2nc3c(cc2c1)c(NC(=O)c1cccnc1)nn3C", "Potency": "inconclusive [inhibitor, full curve, poor fit]"}
{"smiles": "COc1ccc(-c2nn(CCC#N)cc2C(=O)Nc2cccc(C(=O)O)c2)cc1OC", "Potency": "inconclusive [inhibitor, full curve, poor fit]"}
{"smiles": "COc1ccc(NC(=O)CN2C(=O)NC(C)(C3CC3)C2=O)cc1S(=O)(=O)N1CCCCC1", "note": "(stereo not given)", "Potency": "inconclusive [inhibitor, full curve, poor fit]"}
{"smiles": "Cc1ccc(NC(=O)CSc2nnc(-c3ccco3)c(-c3ccco3)n2)cc1", "activity change, negative = inhibition": "inactive: -15.9%"}
{"smiles": "CCn1c(SCC(=O)NNC(=S)Nc2ccccc2)nnc1-c1ccc(Cl)cc1", "Potency": "inconclusive [inhibitor, single point]"}
{"smiles": "CCCc1cc(-c2nc(-c3ccc(Br)cc3)cs2)ccn1", "activity change, negative = inhibition": "inactive: -11.2%"}
{"smiles": "CCCCn1c(SCC(=O)NC2CCCC2)nnc1-c1ccco1", "activity change, negative = inhibition": "inactive: 1.55%"}
{"smiles": "Cc1ccc(C)n1-c1c(C(=O)NN)cnn1-c1ccccc1", "Potency": "inconclusive [inhibitor, full curve, poor fit]"}
{"smiles": "CCOC(=O)c1c(NC(=O)c2c(C)noc2C)sc2c1CCCCC2", "Potency": "inconclusive [inhibitor, partial curve, poor fit]"}
{"smiles": "CC1=CC(=O)C=C(C)C1=NOC(=O)c1cccc([N+](=O)[O-])c1", "Potency": "inconclusive [inhibitor, full curve, poor fit]"}
{"smiles": "CC1=C(C(=O)Nc2ccccc2F)C(c2cccs2)NC(=S)N1", "note": "(stereo not given)", "activity change, negative = inhibition": "inactive: 5.21%"}
{"smiles": "O=[N+]([O-])c1c(Nc2ccc(O)cc2)cc(Cl)c2nonc12", "activity change, negative = inhibition": "inactive: -15.2%"}
{"smiles": "COCCn1cc(C(=S)N2CCOCC2)c2ccccc21", "activity change, negative = inhibition": "inactive: -5.21%"}
{"smiles": "Cn1ccnc1P(=S)(c1nccn1C)N1CCOCC1", "activity change, negative = inhibition": "inactive: -9.2%"}
{"smiles": "O=C1/C(=C\\c2ccco2)SC(=S)N1C1CCCCC1", "Potency": "inconclusive [inhibitor, full curve, poor fit]"}
{"smiles": "COc1cccc(Nc2ncccc2C(=O)Nc2ccccc2)c1", "Potency": "inconclusive [inhibitor, full curve, poor fit]"}
{"smiles": "Cc1ccc(C(=O)Nc2nc(-c3ccc([N+](=O)[O-])cc3)cs2)o1", "Potency": "inconclusive [inhibitor, full curve]"}
{"smiles": "COc1ccc(CCC(=O)Nc2ccc(C)c(S(=O)(=O)N(C)C)c2)cc1OC", "Potency": "inconclusive [inhibitor, full curve, poor fit]"}
{"smiles": "Cn1c(=O)c2c(nc(N3CCc4ccccc4C3)n2Cc2ccc(Br)cc2)n(C)c1=O", "Potency": "inconclusive [inhibitor, single point]"}
{"smiles": "COC(=O)c1ccc(C(NC(=O)OCc2ccccc2)/C(F)=C/[C@@H](C)C(=O)NCc2ccc(OC)c(OC)c2)cc1", "note": "(stereo not given in full)", "Potency": "inconclusive [inhibitor, full curve, poor fit]"}
{"smiles": "N#Cc1ccccc1Cn1cc(/C=C/[N+](=O)[O-])c2ccccc21", "Potency": "inconclusive [inhibitor, full curve, poor fit]"}
{"smiles": "COc1ccc(/C=N/NC(=O)c2ccc(Br)cc2)c(OC)c1", "activity change, negative = inhibition": "inactive: -4.16%"}
{"smiles": "Brc1ccc(/C=C/C=N/Nc2nc3ccccc3s2)cc1", "activity change, negative = inhibition": "inactive: 10.5%"}
{"smiles": "Cc1cccc(C(=O)N/N=C/c2coc3ccccc3c2=O)c1", "Potency": "inconclusive [inhibitor, full curve, poor fit]"}
